{"source": "the supplement of paper PMC10126150", "note": "Values marked as one replicate rest on one cluster of the flow cell; about a third of the high ones do not repeat.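 Further: ATP exposure 15 min at 22 °C before imaging.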"}
{"test_system": "ATP", "experiment": "switch fluorescence ratio, 500 uM ATP over buffer (Cy3 cluster intensity, sum of 5 cycles each) (fold (ratio)); higher = stronger signal-on switching upon ATP binding; sequences stand for … in TCGTCGGCAGCGTCAGATGTGTATAAGAGACAGTTTTTTTTTTTTTTTTTTTTTTTTT…TC", "conditions": "aptamer strand: ATP DNA aptamer (quencher-CACCTGGGGGAGTATTGCGGAGGAAGG + anchor), 100 nM annealed; ATP concentration: 500 uM; one replicate", "how_it_was_run": "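Values give the fluorescence ratio for each switch-domain sequence, averaged from per-cluster ratios of summed target-cycle to summed buffer-cycle Cy3 intensity. The Cy3-labelled switching-strand clusters sat on a modified Illumina MiSeq flow-cell, were annealed to 100 nM quencher-labelled ATP aptamer, and were imaged in selection buffer, then after 15 min with 500 uM ATP at 22 °C. Five cycles ran with NaOH stripping and re-annealing between them, and clusters outside 100-1000 RFU were excluded.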"}
{"sequence": "TGCTGACAA", "switch fluorescence ratio": 0.965}
{"sequence": "TGCTGGAGCG", "switch fluorescence ratio": 0.993}
{"sequence": "TGCTGGATGC", "switch fluorescence ratio": 0.99}
{"sequence": "TGCTGGTGGG", "switch fluorescence ratio": 0.944}
{"sequence": "TGCTGTTTGA", "switch fluorescence ratio": 1.02}
{"sequence": "TGCTTACACT", "switch fluorescence ratio": 1.16}
{"sequence": "TGCTTACGG", "switch fluorescence ratio": 0.992}
{"sequence": "TGCTTATGTA", "switch fluorescence ratio": 0.972}
{"sequence": "TGCTTCATTG", "switch fluorescence ratio": 0.999}
{"sequence": "TGCTTCCGGC", "switch fluorescence ratio": 1.06}
{"sequence": "TGCTTCTGGC", "switch fluorescence ratio": 0.986}
{"sequence": "TGCTTCTTAC", "switch fluorescence ratio": 1.13}
{"sequence": "TGCTTGCTGC", "switch fluorescence ratio": 1.06}
{"sequence": "TGCTTGCTTG", "switch fluorescence ratio": 0.992}
{"sequence": "TGCTTGTTGT", "switch fluorescence ratio": 0.991}
{"sequence": "TGCTTTAACC", "switch fluorescence ratio": 1.14}
{"sequence": "TGCTTTTGCT", "switch fluorescence ratio": 0.959}
{"sequence": "TGGAAAAGTG", "switch fluorescence ratio": 1.03}
{"sequence": "TGGAAACATG", "switch fluorescence ratio": 1.01}
{"sequence": "TGGAAATCT", "switch fluorescence ratio": 1.07}
{"sequence": "TGGAACATTC", "switch fluorescence ratio": 1.06}
{"sequence": "TGGAACCTT", "switch fluorescence ratio": 1.67}
{"sequence": "TGGAACTTCC", "switch fluorescence ratio": 2.51}
{"sequence": "TGGAAGACCA", "switch fluorescence ratio": 1.01}
{"sequence": "TGGAAGTGTG", "switch fluorescence ratio": 0.973}
{"sequence": "TGGAATCATT", "switch fluorescence ratio": 1.01}
{"sequence": "TGGAATTAAT", "switch fluorescence ratio": 1.03}
{"sequence": "TGGAATTTGA", "switch fluorescence ratio": 0.996}
{"sequence": "TGGACATGCA", "switch fluorescence ratio": 1.02}
{"sequence": "TGGACCTAGG", "switch fluorescence ratio": 1.07}
{"sequence": "TGGACGATAG", "switch fluorescence ratio": 1.01}
{"sequence": "TGGACTCACC", "switch fluorescence ratio": 1.35}
{"sequence": "TGGAGCGTCG", "switch fluorescence ratio": 0.984}
{"sequence": "TGGAGTAAGT", "switch fluorescence ratio": 1.03}
{"sequence": "TGGATAATTA", "switch fluorescence ratio": 1.08}
{"sequence": "TGGATACTGG", "switch fluorescence ratio": 0.969}
{"sequence": "TGGATATCTG", "switch fluorescence ratio": 1}
{"sequence": "TGGATCAGTC", "switch fluorescence ratio": 0.969}
{"sequence": "TGGATCCCTT", "switch fluorescence ratio": 1}
{"sequence": "TGGATCTAT", "switch fluorescence ratio": 1.02}
{"sequence": "TGGATGTCTC", "switch fluorescence ratio": 1}
{"sequence": "TGGATGTGC", "switch fluorescence ratio": 0.993}
{"sequence": "TGGATGTTCA", "switch fluorescence ratio": 1.01}
{"sequence": "TGGATTACCG", "switch fluorescence ratio": 1.02}
{"sequence": "TGGATTCAT", "switch fluorescence ratio": 0.985}
{"sequence": "TGGCAAATTT", "switch fluorescence ratio": 1}
{"sequence": "TGGCAACCAG", "switch fluorescence ratio": 0.973}
{"sequence": "TGGCAAGTAT", "switch fluorescence ratio": 0.984}
{"sequence": "TGGCACACCG", "switch fluorescence ratio": 0.987}
{"sequence": "TGGCACCACT", "switch fluorescence ratio": 1.03}
{"sequence": "TGGCACTCTC", "switch fluorescence ratio": 1.15}
{"sequence": "TGGCACTTGC", "switch fluorescence ratio": 1.01}
{"sequence": "TGGCAGAAAC", "switch fluorescence ratio": 1.02}
{"sequence": "TGGCAGATAT", "switch fluorescence ratio": 1.02}
{"sequence": "TGGCAGGGT", "switch fluorescence ratio": 1.06}
{"sequence": "TGGCATTACT", "switch fluorescence ratio": 1.72}
{"sequence": "TGGCCAAGAG", "switch fluorescence ratio": 1.01}
{"sequence": "TGGCCAGTTT", "switch fluorescence ratio": 1.06}
{"sequence": "TGGCCCCATG", "switch fluorescence ratio": 1.02}
{"sequence": "TGGCCCCCTA", "switch fluorescence ratio": 0.958}
{"sequence": "TGGCCCGTTC", "switch fluorescence ratio": 0.999}
{"sequence": "TGGCCCTGGG", "switch fluorescence ratio": 0.973}
{"sequence": "TGGCCGGGC", "switch fluorescence ratio": 1.05}
{"sequence": "TGGCCTGGG", "switch fluorescence ratio": 0.987}
{"sequence": "TGGCCTGTAC", "switch fluorescence ratio": 1.15}
{"sequence": "TGGCCTTTA", "switch fluorescence ratio": 1.01}
{"sequence": "TGGCGAGCCG", "switch fluorescence ratio": 1.03}
{"sequence": "TGGCGCGTAT", "switch fluorescence ratio": 1.01}
{"sequence": "TGGCGCTTGC", "switch fluorescence ratio": 0.996}
{"sequence": "TGGCGGCCTT", "switch fluorescence ratio": 0.999}
{"sequence": "TGGCGGCTT", "switch fluorescence ratio": 0.9}
{"sequence": "TGGCGGCTTA", "switch fluorescence ratio": 0.987}
{"sequence": "TGGCGGGGG", "switch fluorescence ratio": 0.98}
{"sequence": "TGGCGGTGTA", "switch fluorescence ratio": 1.01}
{"sequence": "TGGCGTCACA", "switch fluorescence ratio": 0.996}
{"sequence": "TGGCTACGCC", "switch fluorescence ratio": 1.41}
{"sequence": "TGGCTATTGG", "switch fluorescence ratio": 0.994}
{"sequence": "TGGCTCCGAT", "switch fluorescence ratio": 1.26}
{"sequence": "TGGCTCTAAG", "switch fluorescence ratio": 1}
{"sequence": "TGGCTGCGCC", "switch fluorescence ratio": 1.01}
{"sequence": "TGGCTGCGGG", "switch fluorescence ratio": 0.983}
{"sequence": "TGGCTGGATA", "switch fluorescence ratio": 1.01}
{"sequence": "TGGCTGGCGT", "switch fluorescence ratio": 0.979}
{"sequence": "TGGCTGGGT", "switch fluorescence ratio": 1.04}
{"sequence": "TGGCTGTGTG", "switch fluorescence ratio": 0.983}
{"sequence": "TGGCTTAAAA", "switch fluorescence ratio": 0.986}
{"sequence": "TGGCTTATGT", "switch fluorescence ratio": 1.01}
{"sequence": "TGGCTTCTGT", "switch fluorescence ratio": 1.07}
{"sequence": "TGGCTTTATT", "switch fluorescence ratio": 0.938}
{"sequence": "TGGGAACGCT", "switch fluorescence ratio": 0.984}
{"sequence": "TGGGACAAGT", "switch fluorescence ratio": 1.04}
{"sequence": "TGGGACACCT", "switch fluorescence ratio": 1.08}
{"sequence": "TGGGACCCCT", "switch fluorescence ratio": 0.998}
{"sequence": "TGGGACCTTT", "switch fluorescence ratio": 1.02}
{"sequence": "TGGGATATCA", "switch fluorescence ratio": 1}
{"sequence": "TGGGATCATG", "switch fluorescence ratio": 0.961}
{"sequence": "TGGGATGCGG", "switch fluorescence ratio": 1.05}
{"sequence": "TGGGCAACTT", "switch fluorescence ratio": 0.983}
{"sequence": "TGGGCAATA", "switch fluorescence ratio": 1.7}
{"sequence": "TGGGCAATCA", "switch fluorescence ratio": 1.11}
